# Experimental data published in the supplement of paper PMC4604168 (melanoma cell lines).
# This is one part of the list. Repeats are few or missing, and single values can be far off.
# Tested on: LOXIMVI
# Assay: cell count relative to DMSO control; melanoma cells; higher = more viable cells
# Settings: library dose: standard library concentration; 72 h
# 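Further: cells treated in 1,536-well plates, then fixed and DAPI-stained, with nuclei counted from automated high-throughput microscope images.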
row,SMILES,cell count [%]
1,"O=C(Nc1cc(C(F)(F)F)cc(C(F)(F)F)c1)c1cc(Cl)ccc1O + CC(=O)O[C@@]12CO[C@@H]1C[C@H](O)[C@@]1(C)C(=O)[C@H](O)C3=C(C)[C@@H](OC(=O)[C@H](O)[C@@H](NC(=O)OC(C)(C)C)c4ccccc4)C[C@@](O)([C@@H](OC(=O)c4ccccc4)[C@H]21)C3(C)C [Docetaxel] (first compound 0.08 µM, partner dose 0.0005 µM)",56
2,"O=C(Nc1ccccc1)c1cc([N+](=O)[O-])ccc1Cl + O=S(=O)(c1ccccc1)N(CC(F)(F)F)c1ccc(C(O)(C(F)(F)F)C(F)(F)F)cc1 [T0901317] (first compound 10 µM, partner dose 7 µM)",82.1
3,"O=C(Nc1cc(C(F)(F)F)cc(C(F)(F)F)c1)c1cc(Cl)ccc1O + CCc1ccc(CCOc2ccc(CC3SC(=O)NC3=O)cc2)nc1 [pioglitazone] (first compound 0.08 µM, partner dose 10 µM)",85.4
4,"Cn1nnc2c(C(N)=O)ncn2c1=O [temozolomide] + Oc1nc(-c2ccc(C(F)(F)F)cc2)nc2c1CSCC2 [XAV939] (first compound 10 µM, partner dose 10 µM)",95.9
5,"O=C(Nc1cc(C(F)(F)F)cc(C(F)(F)F)c1)c1cc(Cl)ccc1O + C[C@]1(c2nc3c(C(N)=O)cccc3[nH]2)CCCN1 [Veliparib] (first compound 0.08 µM, partner dose 7 µM)",68
6,"O=C(O)c1ccc2c(c1)nc(Nc1cccc(Cl)c1)c1ccncc12 + O=C(Nc1ccccc1)c1cc([N+](=O)[O-])ccc1Cl [GW9662] (first compound 2 µM, partner dose 10 µM)",32.4
7,"O=C(O)c1ccc2c(c1)nc(Nc1cccc(Cl)c1)c1ccncc12 + Cn1cc(/C=C2\C(=O)Nc3cccnc32)c2ccccc21 [GW441756] (first compound 2 µM, partner dose 2 µM)",71.3
8,"O=C(O)[C@@H]1[O][Sb](=[O])([O][Sb]2(=[O])[O][C@H]([C@H](O)CO)[C@H](O)[C@H](C(=O)O)[O]2)[O][C@H]([C@H](O)CO)[C@@H]1O (stereo partly drawn) [stibogluconate] + COc1ccc2c(c1)CCC1C2CCC2(C)C(NCCCCCCN3C(=O)C=CC3=O)CCC12 [U73122] (first compound 10 µM, partner dose 2 µM)",78.3
